Some of the results follow.
Molecular target: T1, MBP-FoxP1dN (Mus musculus, UniProt P58462 326-579)
T1 sequence: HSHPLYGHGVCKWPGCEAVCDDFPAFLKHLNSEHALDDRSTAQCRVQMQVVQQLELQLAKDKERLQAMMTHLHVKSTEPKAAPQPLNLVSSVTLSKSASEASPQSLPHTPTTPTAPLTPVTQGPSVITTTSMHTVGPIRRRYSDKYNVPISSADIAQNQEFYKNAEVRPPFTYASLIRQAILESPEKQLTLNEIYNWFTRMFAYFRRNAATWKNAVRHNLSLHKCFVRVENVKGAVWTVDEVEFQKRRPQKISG
Assay: PD-seq (MBP pull-down with sequencing); 20 mM Tris-HCl pH 7.5, 100 mM NaCl, 1.5 mM MgCl2, 0.4 uM protein, 0.1 uM dsDNA library, 30 min, room temperature, amylose pull-down; high values mean tight binding
Conditions: protein: recombinant; tags: His6-MBP; chain copies: 2; dsDNA, one strand shown
How it was run: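 Protein and DNA were mixed at 0.4 µM and 0.1 µM and held for 30 min at room temperature in Tris pH 7.5 buffer with NaCl and MgCl2; the protein was a His6-MBP-tagged, N-terminally truncated mouse FoxP3 or FoxP1 fragment from E. coli, and the DNA a Klenow-filled double-stranded degenerate library. Amylose resin captured the complexes, which were washed three times. Binding is read as reads-per-million enrichment of pull-down versus input after Illumina sequencing, with replicates pooled.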

| Sequence | binding signal |
| --- | --- |
| GATGATTGTTCTCCCAGCTGATGAATTCACAATCTCGAGTAAACAAATTTTCCTAATCTTTCTGTTCAAGCGCCATCTAC | 0.968 RPM ratio (pull-down/input) |
| GATGATTGTTCTCCCAGCTGATGAATTCGGAGACTCGAGTAAACAAATTTTCCTAATCTTTCTGTTCAAGCGCCATCTAC | 0.809 RPM ratio (pull-down/input) |
| GATGATTGTTCTCCCAGCTGATGAATTAAGCGGATCGAGTAAACAAATTTTCCTAATCTTTCTGTTCAAGCGCCATCTAC | 0.948 RPM ratio (pull-down/input) |
| GATGATTGTTCTCCCAGCTGATGAATTGTAAGACTCGAGTAAACAAATTTTCCTAATCTTTCTGTTCAAGCGCCATCTAC | 0.981 RPM ratio (pull-down/input) |
| GATGATTGTTCTCCCAGCTGATGAATTGTGCCTGTCGAGTAAACAAATTTTCCTAATCTTTCTGTTCAAGCGCCATCTAC | 0.964 RPM ratio (pull-down/input) |
| GATGATTGTTCTCCCAGCTGATGAATTCGATAGGTCGAGTAAACAAATTTTCCTAATCTTTCTGTTCAAGCGCCATCTAC | 0.706 RPM ratio (pull-down/input) |
| GATGATTGTTCTCCCAGCTGATGAATTCTTCTTTTCGAGTAAACAAATTTTCCTAATCTTTCTGTTCAAGCGCCATCTAC | 0.979 RPM ratio (pull-down/input) |
| GATGATTGTTCTCCCAGCTGATGAATTTAGTGACTCGAGTAAACAAATTTTCCTAATCTTTCTGTTCAAGCGCCATCTAC | 0.965 RPM ratio (pull-down/input) |
| GATGATTGTTCTCCCAGCTGATGAATTCGGCCCATCGAGTAAACAAATTTTCCTAATCTTTCTGTTCAAGCGCCATCTAC | 0.771 RPM ratio (pull-down/input) |
| GATGATTGTTCTCCCAGCTGATGAATTTGCGTACTCGAGTAAACAAATTTTCCTAATCTTTCTGTTCAAGCGCCATCTAC | 1.15 RPM ratio (pull-down/input) |
| GATGATTGTTCTCCCAGCTGATGAATTGAAACCCTCGAGTAAACAAATTTTCCTAATCTTTCTGTTCAAGCGCCATCTAC | 0.809 RPM ratio (pull-down/input) |
| GATGATTGTTCTCCCAGCTGATGAATTGAGAGTGTCGAGTAAACAAATTTTCCTAATCTTTCTGTTCAAGCGCCATCTAC | 0.885 RPM ratio (pull-down/input) |
| GATGATTGTTCTCCCAGCTGATGAATTCATCCAGTCGAGTAAACAAATTTTCCTAATCTTTCTGTTCAAGCGCCATCTAC | 0.813 RPM ratio (pull-down/input) |
| GATGATTGTTCTCCCAGCTGATGAATTGTGCTTGTCGAGTAAACAAATTTTCCTAATCTTTCTGTTCAAGCGCCATCTAC | 1.35 RPM ratio (pull-down/input) |
| GATGATTGTTCTCCCAGCTGATGAATTGGGCGCATCGAGTAAACAAATTTTCCTAATCTTTCTGTTCAAGCGCCATCTAC | 1.2 RPM ratio (pull-down/input) |
| GATGATTGTTCTCCCAGCTGATGAATTTAGTGATTCGAGTAAACAAATTTTCCTAATCTTTCTGTTCAAGCGCCATCTAC | 0.949 RPM ratio (pull-down/input) |
| GATGATTGTTCTCCCAGCTGATGAATTACAGGTGTCGAGTAAACAAATTTTCCTAATCTTTCTGTTCAAGCGCCATCTAC | 1.07 RPM ratio (pull-down/input) |
| GATGATTGTTCTCCCAGCTGATGAATTCGCAGATTCGAGTAAACAAATTTTCCTAATCTTTCTGTTCAAGCGCCATCTAC | 0.831 RPM ratio (pull-down/input) |
| GATGATTGTTCTCCCAGCTGATGAATTACGTTGCTCGAGTAAACAAATTTTCCTAATCTTTCTGTTCAAGCGCCATCTAC | 1.13 RPM ratio (pull-down/input) |
| GATGATTGTTCTCCCAGCTGATGAATTAAATCTTTCGAGTAAACAAATTTTCCTAATCTTTCTGTTCAAGCGCCATCTAC | 0.941 RPM ratio (pull-down/input) |
| GATGATTGTTCTCCCAGCTGATGAATTACCGGCCTCGAGTAAACAAATTTTCCTAATCTTTCTGTTCAAGCGCCATCTAC | 0.877 RPM ratio (pull-down/input) |

| Sequence | binding signal |
| --- | --- |
| GATGATTGTTCTCCCAGCTGATGAATTAAATCCATCGAGTAAACAAATTTTCCTAATCTTTCTGTTCAAGCGCCATCTAC | 0.894 RPM ratio (pull-down/input) |
| GATGATTGTTCTCCCAGCTGATGAATTACATCCATCGAGTAAACAAATTTTCCTAATCTTTCTGTTCAAGCGCCATCTAC | 1.12 RPM ratio (pull-down/input) |
| GATGATTGTTCTCCCAGCTGATGAATTCTGAGGATCGAGTAAACAAATTTTCCTAATCTTTCTGTTCAAGCGCCATCTAC | 0.866 RPM ratio (pull-down/input) |
| GATGATTGTTCTCCCAGCTGATGAATTTCGGCCGTCGAGTAAACAAATTTTCCTAATCTTTCTGTTCAAGCGCCATCTAC | 0.786 RPM ratio (pull-down/input) |
| GATGATTGTTCTCCCAGCTGATGAATTGCAAGGGTCGAGTAAACAAATTTTCCTAATCTTTCTGTTCAAGCGCCATCTAC | 1.02 RPM ratio (pull-down/input) |
| GATGATTGTTCTCCCAGCTGATGAATTATTCCTATCGAGTAAACAAATTTTCCTAATCTTTCTGTTCAAGCGCCATCTAC | 1.08 RPM ratio (pull-down/input) |
| GATGATTGTTCTCCCAGCTGATGAATTACAATAATCGAGTAAACAAATTTTCCTAATCTTTCTGTTCAAGCGCCATCTAC | 1.83 RPM ratio (pull-down/input) |
| GATGATTGTTCTCCCAGCTGATGAATTATTCGGCTCGAGTAAACAAATTTTCCTAATCTTTCTGTTCAAGCGCCATCTAC | 0.904 RPM ratio (pull-down/input) |
| GATGATTGTTCTCCCAGCTGATGAATTGTTAGAGTCGAGTAAACAAATTTTCCTAATCTTTCTGTTCAAGCGCCATCTAC | 1.05 RPM ratio (pull-down/input) |
| GATGATTGTTCTCCCAGCTGATGAATTTTTGCCATCGAGTAAACAAATTTTCCTAATCTTTCTGTTCAAGCGCCATCTAC | 1.03 RPM ratio (pull-down/input) |
| GATGATTGTTCTCCCAGCTGATGAATTTCGGGTGTCGAGTAAACAAATTTTCCTAATCTTTCTGTTCAAGCGCCATCTAC | 0.819 RPM ratio (pull-down/input) |
| GATGATTGTTCTCCCAGCTGATGAATTTGCCCCTTCGAGTAAACAAATTTTCCTAATCTTTCTGTTCAAGCGCCATCTAC | 0.891 RPM ratio (pull-down/input) |
| GATGATTGTTCTCCCAGCTGATGAATTACAGTCATCGAGTAAACAAATTTTCCTAATCTTTCTGTTCAAGCGCCATCTAC | 1.25 RPM ratio (pull-down/input) |
| GATGATTGTTCTCCCAGCTGATGAATTTTGAACATCGAGTAAACAAATTTTCCTAATCTTTCTGTTCAAGCGCCATCTAC | 1.1 RPM ratio (pull-down/input) |
| GATGATTGTTCTCCCAGCTGATGAATTAGCTGTCTCGAGTAAACAAATTTTCCTAATCTTTCTGTTCAAGCGCCATCTAC | 0.931 RPM ratio (pull-down/input) |
| GATGATTGTTCTCCCAGCTGATGAATTGGTGTACTCGAGTAAACAAATTTTCCTAATCTTTCTGTTCAAGCGCCATCTAC | 1.11 RPM ratio (pull-down/input) |
| GATGATTGTTCTCCCAGCTGATGAATTCGTGAGCTCGAGTAAACAAATTTTCCTAATCTTTCTGTTCAAGCGCCATCTAC | 0.781 RPM ratio (pull-down/input) |
| GATGATTGTTCTCCCAGCTGATGAATTGCTCCTTTCGAGTAAACAAATTTTCCTAATCTTTCTGTTCAAGCGCCATCTAC | 1.02 RPM ratio (pull-down/input) |
| GATGATTGTTCTCCCAGCTGATGAATTCCTGGCATCGAGTAAACAAATTTTCCTAATCTTTCTGTTCAAGCGCCATCTAC | 0.931 RPM ratio (pull-down/input) |
| GATGATTGTTCTCCCAGCTGATGAATTATGTCCGTCGAGTAAACAAATTTTCCTAATCTTTCTGTTCAAGCGCCATCTAC | 0.963 RPM ratio (pull-down/input) |
| GATGATTGTTCTCCCAGCTGATGAATTAGGTCGGTCGAGTAAACAAATTTTCCTAATCTTTCTGTTCAAGCGCCATCTAC | 0.815 RPM ratio (pull-down/input) |

| Sequence | binding signal |
| --- | --- |
| GATGATTGTTCTCCCAGCTGATGAATTGTTTAAGTCGAGTAAACAAATTTTCCTAATCTTTCTGTTCAAGCGCCATCTAC | 1.26 RPM ratio (pull-down/input) |
| GATGATTGTTCTCCCAGCTGATGAATTGTCGACATCGAGTAAACAAATTTTCCTAATCTTTCTGTTCAAGCGCCATCTAC | 1.1 RPM ratio (pull-down/input) |
| GATGATTGTTCTCCCAGCTGATGAATTCCAGTTTTCGAGTAAACAAATTTTCCTAATCTTTCTGTTCAAGCGCCATCTAC | 1.01 RPM ratio (pull-down/input) |
| GATGATTGTTCTCCCAGCTGATGAATTCCGCGTCTCGAGTAAACAAATTTTCCTAATCTTTCTGTTCAAGCGCCATCTAC | 0.89 RPM ratio (pull-down/input) |
| GATGATTGTTCTCCCAGCTGATGAATTCCAAGCTTCGAGTAAACAAATTTTCCTAATCTTTCTGTTCAAGCGCCATCTAC | 0.778 RPM ratio (pull-down/input) |
| GATGATTGTTCTCCCAGCTGATGAATTTTGCCTCTCGAGTAAACAAATTTTCCTAATCTTTCTGTTCAAGCGCCATCTAC | 0.903 RPM ratio (pull-down/input) |
| GATGATTGTTCTCCCAGCTGATGAATTCGCCCCATCGAGTAAACAAATTTTCCTAATCTTTCTGTTCAAGCGCCATCTAC | 0.897 RPM ratio (pull-down/input) |
| GATGATTGTTCTCCCAGCTGATGAATTTATATCGTCGAGTAAACAAATTTTCCTAATCTTTCTGTTCAAGCGCCATCTAC | 1.05 RPM ratio (pull-down/input) |
| GATGATTGTTCTCCCAGCTGATGAATTCTACCTTTCGAGTAAACAAATTTTCCTAATCTTTCTGTTCAAGCGCCATCTAC | 0.93 RPM ratio (pull-down/input) |
| GATGATTGTTCTCCCAGCTGATGAATTGCTCCAATCGAGTAAACAAATTTTCCTAATCTTTCTGTTCAAGCGCCATCTAC | 1.09 RPM ratio (pull-down/input) |
| GATGATTGTTCTCCCAGCTGATGAATTGGTAGTTTCGAGTAAACAAATTTTCCTAATCTTTCTGTTCAAGCGCCATCTAC | 1.03 RPM ratio (pull-down/input) |
| GATGATTGTTCTCCCAGCTGATGAATTATATGGATCGAGTAAACAAATTTTCCTAATCTTTCTGTTCAAGCGCCATCTAC | 0.917 RPM ratio (pull-down/input) |
| GATGATTGTTCTCCCAGCTGATGAATTGTGAACATCGAGTAAACAAATTTTCCTAATCTTTCTGTTCAAGCGCCATCTAC | 1.33 RPM ratio (pull-down/input) |
| GATGATTGTTCTCCCAGCTGATGAATTGTTTATATCGAGTAAACAAATTTTCCTAATCTTTCTGTTCAAGCGCCATCTAC | 2.47 RPM ratio (pull-down/input) |
| GATGATTGTTCTCCCAGCTGATGAATTTGGTGTCTCGAGTAAACAAATTTTCCTAATCTTTCTGTTCAAGCGCCATCTAC | 0.916 RPM ratio (pull-down/input) |
| GATGATTGTTCTCCCAGCTGATGAATTTCGGTGATCGAGTAAACAAATTTTCCTAATCTTTCTGTTCAAGCGCCATCTAC | 0.941 RPM ratio (pull-down/input) |
| GATGATTGTTCTCCCAGCTGATGAATTAGTCCTGTCGAGTAAACAAATTTTCCTAATCTTTCTGTTCAAGCGCCATCTAC | 0.893 RPM ratio (pull-down/input) |
| GATGATTGTTCTCCCAGCTGATGAATTACTACTGTCGAGTAAACAAATTTTCCTAATCTTTCTGTTCAAGCGCCATCTAC | 1.23 RPM ratio (pull-down/input) |
| GATGATTGTTCTCCCAGCTGATGAATTTGCGAATTCGAGTAAACAAATTTTCCTAATCTTTCTGTTCAAGCGCCATCTAC | 1.03 RPM ratio (pull-down/input) |
| GATGATTGTTCTCCCAGCTGATGAATTTAATTCGTCGAGTAAACAAATTTTCCTAATCTTTCTGTTCAAGCGCCATCTAC | 0.913 RPM ratio (pull-down/input) |
| GATGATTGTTCTCCCAGCTGATGAATTCTGTATGTCGAGTAAACAAATTTTCCTAATCTTTCTGTTCAAGCGCCATCTAC | 1.23 RPM ratio (pull-down/input) |
